The text below walks through data of US20260250398A1.

The labels stand for the following.
B1: CM0042 (FZD Diabody-Fc-LRP Diabody; paratopes 5019; 2539) (bispecific antibody)
chain: MNLLLILTFVAAAVAEFEVQLVESGGGLVQPGGSLRLSCAASGFNIGSSSIHWVRQAPGKGLEWVASIYSAFASTSYADSVKGRFTISADTSKNTAYLQMNSLRAEDTAVYYCARYHFPFGFALDYWGQGTLVTVSSGGGGSDIQMTQSPSSLSASVGDRVTITCRASQSVSSAVAWYQQKPGKAPKLLIYSASSLYSGVPSRFSGSRSGTDFTLTISSLQPEDFATYYCQQGVYLFTFGQGTKVEIKLEDKTHTKV[sequence of human IgG1 Fc with C220S (EU numbers) not given]SGSETPGTSESATPESGGGEVQLVESGGGLVQPGGSLRLSCAASGFNISYSSIHWVRQAPGKGLEWVAYISSYYGYTYYADSVKGRFTISADTSKNTAYLQMNSLRAEDTAVYYCARAHYFPWAGAMDYWGQGTLVTVSSGGGGSDIQMTQSPSSLSASVGDRVTITCRASQSVSSAVAWYQQKPGKAPKLLIYSASSLYSGVPSRFSGSRSGTDFTLTISSLQPEDFATYYCQQYSWGPFTFGQGTKVEIK
B2: CM0299 (FZD IgG-LRP Diabody; paratopes 5016; 2539) (bispecific antibody)
heavy: EVQLVESGGGLVQPGGSLRLSCAASGFNIHSSSIHWVRQAPGKGLEWVAATYSSFGSITYADSVKGRFTISADTSKNTAYLQMNSLRAEDTAVYYCARYHHPFGYALDYWGQGTLVTVSS[sequence of human IgG1 constant region not given]SGSETPGTSESATPESGGGEVQLVESGGGLVQPGGSLRLSCAASGFNISYSSIHWVRQAPGKGLEWVAYISSYYGYTYYADSVKGRFTISADTSKNTAYLQMNSLRAEDTAVYYCARAHYFPWAGAMDYWGQGTLVTVSSGGGGSDIQMTQSPSSLSASVGDRVTITCRASQSVSSAVAWYQQKPGKAPKLLIYSASSLYSGVPSRFSGSRSGTDFTLTISSLQPEDFATYYCQQYSWGPFTFGQGTKVEIK
light: DIQMTQSPSSLSASVGDRVTITCRASQSVSSAVAWYQQKPGKAPKLLIYSASSLYSGVPSRFSGSRSGTDFTLTISSLQPEDFATYYCQQGVYLFTFGQGTKVEIKRTVAAPSVFIFPPSDEQLKSGTASVVCLLNNFYPREAKVQWKVDNALQSGNSQESVTEQDSKDSTYSLSSTLTLSKADYEKHKVYACEVTHQGLSSPVTKSFNRGEC
B3: CM0300 (FZD IgG-LRP scFv; paratopes 5016; 2539) (bispecific antibody)
heavy: EVQLVESGGGLVQPGGSLRLSCAASGFNIHSSSIHWVRQAPGKGLEWVAATYSSFGSITYADSVKGRFTISADTSKNTAYLQMNSLRAEDTAVYYCARYHHPFGYALDYWGQGTLVTVSS[sequence of human IgG1 constant region not given]SGSETPGTSESATPESGGGDIQMTQSPSSLSASVGDRVTITCRASQSVSSAVAWYQQKPGKAPKLLIYSASSLYSGVPSRFSGSRSGTDFTLTISSLQPEDFATYYCQQYSWGPFTFGQGTKVEIKGTTAASGSSGGSSSGAEVQLVESGGGLVQPGGSLRLSCAASGFNISYSSIHWVRQAPGKGLEWVAYISSYYGYTYYADSVKGRFTISADTSKNTAYLQMNSLRAEDTAVYYCARAHYFPWAGAMDYWGQGTLVTVSS
light: B2 light
B4: CM0301 (FZD IgG-LRP scFv; paratopes 5016; 2542) (bispecific antibody)
heavy: EVQLVESGGGLVQPGGSLRLSCAASGFNIHSSSIHWVRQAPGKGLEWVAATYSSFGSITYADSVKGRFTISADTSKNTAYLQMNSLRAEDTAVYYCARYHHPFGYALDYWGQGTLVTVSS[sequence of human IgG1 constant region not given]SGSETPGTSESATPESGGGDIQMTQSPSSLSASVGDRVTITCRASQSVSSAVAWYQQKPGKAPKLLIYSASSLYSGVPSRFSGSRSGTDFTLTISSLQPEDFATYYCQQYYWPITFGQGTKVEIKGTTAASGSSGGSSSGAEVQLVESGGGLVQPGGSLRLSCAASGFNISSYYIHWVRQAPGKGLEWVASIYSSYGYTSYADSVKGRFTISADTSKNTAYLQMNSLRAEDTAVYYCARTVRGSKKPYFSGWAMDYWGQGTLVTVSS
light: B2 light

The target of the test is FZD1/2/4/5/7/8. Kind of test: cell-based or functional assay.
In the case of B1, the TOPFLASH % Wnt Maxima turned out to be 33 % Wnt Maxima and the TOPFLASH EC50 worked out at 0.9 nM.
Take B2: the TOPFLASH % Wnt Maxima is 14 % Wnt Maxima and the TOPFLASH EC50 amounted to 0.1 nM.
As for B3, the TOPFLASH % Wnt Maxima came out at 5 % Wnt Maxima and the TOPFLASH EC50 was found to be 0.3 nM.
For B4 the same measures were 1 % Wnt Maxima and 0.2 nM.
